# Reference: the supplement of paper PMC10600219
# Structures can show the parent of a compound that is named as a salt. In all, about 2,800 compounds were measured (“cell viability relative to vehicle”: median about 1.1, lowest 2% from about 0.19 on). The list shows a part of the results.
# Test system: NCI-H2228 parental
# Experiment: cell viability relative to vehicle (fraction of vehicle); NCI-H2228 is an ALK-positive lung cancer line and DTP means drug-tolerant persister; higher = less growth inhibition
# Conditions: 100 nM; treatment time 6 days
# Outline: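 Parental NCI-H2228 cells and drug-tolerant persister cells (made with 1000 nM of a targeted drug for 13 days) were seeded in 384-well plates. The next day, the 3114-agent TargetMol anti-cancer compound library was added at 100 nM, with DMSO as vehicle. After 6 days, ATP was read with the CellTiter-Glo 3D Cell Viability Assay. Each value is cell viability relative to vehicle-treated cells.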
row,SMILES,cell viability
1,Cc1cc(N2C[C@@H](C)N[C@@H](C)C2)ncc1-c1ccc(-c2nc3c(ccn3C)c(=O)[nH]2)cc1,0.964
2,O=C(O)CCN1C(=O)/C(=C/c2ccc(-c3ccc([N+](=O)[O-])cc3)o2)SC1=S,0.968
3,CC(=O)OC/C=C(C)/C=C/C=C(C)/C=C/C1=C(C)CCCC1(C)C [Retinyl acetate],1.04
4,NS(=O)(=O)c1cc2c(cc1Cl)N=C(CSCc1ccccc1)NS2(=O)=O [Benzthiazide],0.933
5,O=C1C(CC[S+]([O-])c2ccccc2)C(=O)N(c2ccccc2)N1c1ccccc1 (stereo not given) [Sulfinpyrazone],1.11
6,Cc1cnc(Nc2ccc(N3CCN(C)CC3)cc2)nc1Nc1cccc(S(=O)(=O)NC(C)(C)C)c1,0.79
7,O=C1NC(=O)/C(=C/c2ccc(-c3ccc(F)cc3O)o2)S1,1.09
8,CC(C)CCN1c2nc(Nc3cc(F)c(O)c(F)c3)ncc2N(C)C(=O)C1C (stereo not given),1.03
9,CCCCCCCCCCCCCCCCCC(=O)O [Stearic acid],1.05
10,CN1CCN(CCCNc2ncc(Cl)c(-c3cc4c(C(=O)NC5CC5)cccc4s3)n2)CC1,1.07
11,CC[C@@]1(O)C(=O)OCc2c1cc1n(c2=O)Cc2cc3cc(O)ccc3nc2-1 [Hydroxy Camptothecine],0.0691
12,CC[C@@]1(O)C(=O)OCc2c1cc1n(c2=O)Cc2cc3cc(O)ccc3nc2-1 [10-Hydroxycamptothecin],0.0838
13,OCC1(O)COc2cc(O)ccc2-c2cc(O)c(O)cc2C1 (stereo not given) [Protosappanin B],1.04
14,CC[C@H](C)n1cc(C)c2c(C(=O)NCc3c(C)cc(C)[nH]c3=O)cc(-c3ccc(N4CCNCC4)nc3)cc21,1.25
15,Nc1cccc(S(=O)(=O)N2CCCN(S(=O)(=O)c3ccc4c(c3)OCCO4)CC2)c1,1.15
16,COc1ccc(-c2oc3c(CC=C(C)C)c(O)cc(O)c3c(=O)c2O[C@@H]2O[C@@H](C)[C@H](O)[C@@H](O)[C@H]2O)cc1 [Baohuoside I],1.17
17,Cc1cccc(-c2[nH]c(C(C)(C)C)nc2-c2ccc3nccnc3c2)n1,0.984
18,CC1(C)OC(=O)C=C[C@]2(C)[C@H]3CC[C@@]4(C)[C@H](c5ccoc5)OC(=O)[C@H]5O[C@]54[C@]3(C)C(=O)C[C@@H]12 [Obacunone],1.09
19,C[C@@H](c1ncncc1F)[C@](O)(Cn1cncn1)c1ccc(F)cc1F [Voriconazole],1.02
20,Cc1c(NC(=O)c2ccc(C(C)(C)C)cc2)cccc1-c1cn(C)c(=O)c(Nc2ccc(C(=O)N3CCOCC3)cc2)n1,0.848
21,O=C(O)Cc1ccccc1Nc1c(Cl)cccc1Cl [Diclofenac sodium],1.21
22,C[C@@H]1CC[C@@]2(NC1)O[C@H]1C[C@H]3[C@@H]4CC=C5C[C@@H](O[C@@H]6O[C@H](CO)[C@@H](O[C@@H]7O[C@@H](C)[C@H](O)[C@@H](O)[C@H]7O)[C@H](O)[C@H]6O[C@@H]6O[C@@H](C)[C@H](O)[C@@H](O)[C@H]6O)CC[C@]5(C)[C@H]4CC[C@]3(C)[C@H]1[C@@H]2C [Solamargine],1.06
23,CN(C)CCCNC(=O)c1ccc(-c2cc(O)c3ncccc3c2)cc1,1.11
24,CC(=O)Oc1cc(C(F)(F)F)ccc1C(=O)O [Triflusal],1.22
25,CC(C)C(=O)SCCCCCCC(=O)Nc1nc(-c2ccccc2)cs1,0.967

row,SMILES,cell viability
1,CNC(=O)c1ccccc1Oc1nc(Nc2cc(OC)c(OC)c(OC)c2)ncc1Br,1.14
2,O=c1ncn2nc(Sc3ccc(F)cc3F)ccc2c1-c1c(Cl)cccc1Cl [Neflamapimod],1.14
3,O=c1[nH]cc(F)c(=O)[nH]1 [Fluorouracil],0.981
4,Cc1cncc(CN2CCC(=C3c4ccc(Cl)cc4CCc4cccnc43)CC2)c1 [Rupatadine Fumarate],1.14
5,CCC(=O)O[C@H](CC(=O)O)C[N+](C)(C)C [Propionyl-L-carnitine hydrochloride],1.04
6,Nc1ccc(O)c(C(=O)O)c1 [Mesalamine],0.99
7,Cc1cc(NC(=O)C2=C(O)c3ccccc3S(=O)(=O)N2C)no1 [Isoxicam],0.894
8,O=C1NC(=O)/C(=C\c2ccc3nccnc3c2)S1,1.06
9,COC(=O)N1CCN(Cc2cccc(NC(=O)Nc3ccc(C)nc3)c2F)CC1 [Omecamtiv mecarbil],1.08
10,O=C(O)CSc1cc(NS(=O)(=O)c2ccc(Br)cc2)c2ccccc2c1O,1.04
11,CN(C)CCCN1c2ccccc2CCc2ccc(Cl)cc21 [Clomipramine hydrochloride],0.946
12,O=c1[nH]c(=O)n([C@@H]2O[C@H](CO)[C@@H](O)[C@H]2O)cc1F [5-Fluorouridine],0.425
13,O=C(Nc1nc(-c2ccc(O)c(O)c2)c(-c2ccccc2)s1)c1ccc(O)c(O)c1,1.07
14,COC(=O)C1=C(C)NC(C)=C(C(=O)OC)C1c1ccccc1[N+](=O)[O-] [Nifedipine],0.977
15,COc1cc(N2CCN(C)CC2)ccc1Nc1nccc(-c2cn(C)c3cnccc23)n1,1.02
16,COc1cc2c(cc1O)CC[C@@H]1[C@@H]2CC[C@]2(C)[C@@H](O)CC[C@@H]12 [2-Methoxyestradiol],1.06
17,COc1ccc(C(=O)N2CCN(c3ccc4c(c3)CCC(=O)N4)CC2)cc1OC [Vesnarinone],1.01
18,O=C(NC[C@H](O)CN1CCc2ccccc2C1)c1ccnc(NC2CCC2)c1,0.666
19,C#C[C@]1(O)CC[C@H]2[C@@H]3CCC4=CC(=O)CC[C@@H]4[C@H]3CC[C@@]21C [Norethindrone],1.17
20,CC(C)[C@H](C(=O)Nc1ccc(C(=O)NO)cc1)c1ccccc1,0.605
21,C#C[C@]1(OC(C)=O)CC[C@H]2[C@@H]3CCC4=C[C@@H](OC(C)=O)CC[C@@H]4[C@H]3CC[C@@]21C [Ethynodiol diacetate],1.11
22,Oc1cc(-c2nc(-c3ccccc3)[nH]c2-c2ccncc2)ccc1Cl,1.08
23,CNC1CCC(N(Cc2cccc(-c3ccncc3)c2)C(=O)c2sc3ccccc3c2Cl)CC1 (stereo not given),1.13
24,NC(=O)c1ccc2nc(-c3ccc(Oc4ccc(Cl)cc4)cc3)[nH]c2c1,0.996
25,Nc1ccc(S(=O)(=O)Nc2ncccn2)cc1 [Sulfadiazine],1.25
